In the supplement of paper PMC12355420:
Where a name gives a salt, the structure may show the parent alone. Some of the results follow. Most values come without repeats; read them as rough.

What follows are molecules tested on HeLa VPS33A reporter cells (assay: relative cell viability (CellMask signal) vs DMSO (fraction of DMSO); HeLa model of a glycosaminoglycan (GAG) storage disease; KI is knock-in and KO knock-out; SDC1 is syndecan 1; higher = less cytotoxic). Conditions: 50 µM; 24 h.
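Further: primary screen of an FDA-approved drug library in HeLa reporter cells in 96-well format, CellMask signal normalized to DMSO-treated wells set as 1, under 0.5 deemed highly cytotoxic.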

SMILES	relative cell viability
O=C([O-])c1ccccc1.[Na+] [Sodium benzoate]	0.987
Cc1onc(-c2ccccc2Cl)c1C(=O)N[C@@H]1C(=O)N2[C@@H]1SC(C)(C)[C@@H]2C(=O)O [Cloxacillin Sodium]	1.03
Cc1cnc(NC(=O)C2=C(O)c3ccccc3S(=O)(=O)N2C)s1 [Meloxicam (Mobic)]	1.01
O=c1[nH]c(=O)n([C@H]2C[C@H](O)[C@@H](CO)O2)cc1F [Floxuridine]	1.15
Cn1c(=O)c2c(ncn2CC(O)CO)n(C)c1=O (stereo unspecified) [Dyphylline]	1.26
CC[C@H]1OC(=O)[C@H](C)[C@@H](O[C@H]2C[C@@](C)(OC)[C@@H](O)[C@H](C)O2)[C@H](C)[C@@H](O[C@@H]2O[C@H](C)C[C@H](N(C)C)[C@H]2O)[C@](C)(O)C[C@@H](C)/C(=N\OCOCCOC)[C@H](C)[C@@H](O)[C@]1(C)O [Roxithromycin]	1.02
CCCCC(C)(O)C/C=C/[C@H]1[C@H](O)CC(=O)[C@@H]1CCCCCCC(=O)OC (mixture of isomers) [Misoprostol]	0.974
CC(C)OC(=O)C(C(=O)OC(C)C)=C1SC=CS1 [Malotilate]	0.892
O=C1NCC2(CCN(CCc3ccccc3)CC2)O1 [Fenspiride HCl]	0.849
COc1nc2ccc(Br)cc2cc1[C@@H](c1ccccc1)[C@@](O)(CCN(C)C)c1cccc2ccccc12 [Bedaquiline fumarate]	1.03
CC1Cc2ccccc2N1NC(=O)c1ccc(Cl)c(S(N)(=O)=O)c1 (stereo unspecified) [Indapamide]	1.01
